This is one part of the list.

Results on 14 molecules are retold here after PMC12136788.

B1: chr7:54168817:54168818:-_ENSMUSG00000014402_ENSMUST00000014546|mus_mus|FALSE|FALSE (ssRNA)
RNA: GGGAGUUCUACAGUCCGACGAUCGUUUGAGAUCUUUGUACAUAGCGAUGACAUUGACAGUUUGACGGACGGUUAGAUCUCUAUAUUUGUACUUGGACAUCAUCUUCUUCAGCUGACUCUCGGACACCGCCAUGGCGCGCUCCUCAACAGAGGAUUGAGCAUCA
B2: chrX:45232703:45232704:-_ENSMUSG00000031099_ENSMUST00000088973|mus_mus|FALSE|FALSE (ssRNA)
RNA: GGGAGUUCUACAGUCCGACGAUCAGAUGGAACCCAUCGUUUAAAUUCAUUCAUCCAGUUAUGUAAAGUAGACUUGGGAACUAAAACCAUGUGGGGUCCAGGAAUGUUUCUGUAGUGCUUCAGGUAACCAAGCAAGGCAAUGGUCAACAGAGGAUUGAGCAUCA
B3: chr15:98780418:98780419:-_ENSMUSG00000072235_ENSMUST00000097014|mus_hu|FALSE|FALSE (ssRNA)
RNA: GGGAGUUCUACAGUCCGACGAUCAGCAUACACUGCUACAUACAAAUUAACUGAUCAGACCACAACUUUUCAAUGUUUAAAACAGAAUAAGCUUCCCUGUAAAAGCAGCACCUUUGUGACGUUUUAACUUUAGUAUUCCUCUCCCAACAGAGGAUUGAGCAUCA
B4: chr14:22594296:22594297:+_ENSMUSG00000021770_ENSMUST00000119430|mus_mus|FALSE|FALSE (ssRNA)
RNA: GGGAGUUCUACAGUCCGACGAUCAUCAUAUUCAGUCAGCGUGAGCAAUGUGAUUCCAUCAAGGCGGUGCUUGUUGCAUAAAAUGUCCACAUACUCAAAGAAACCUUCGUCCUUCAGCCACACAGCCACAUGCUUGGUAGUCCACAACAGAGGAUUGAGCAUCA
B5: chr9:58722913:58722914:-_ENSMUSG00000032340_ENSMUST00000068664|mus_hu|FALSE|FALSE (ssRNA)
RNA: GGGAGUUCUACAGUCCGACGAUCGGCGACAGACACAGGUGUUCCAAAUCCCCCCGAGGAAGCUGCUGAGCGGCAGCUCAACCAGGACACUACAGGACACACAAUGGUUUAGUUUCGAAAAUCACAGGAAAAUGUAAGAAAAUGCAACAGAGGAUUGAGCAUCA
B6: chr3:179052105:179052106:+_ENSG00000121864_ENST00000484866|hu_mus|FALSE|FALSE (ssRNA)
RNA: GGGAGUUCUACAGUCCGACGAUCCCCAAACCUCAUCAAGCACUCACUACAUUUAUGAGGCAAGUCAGCUGAAUGCUUGAAAUCUAGAUGAAUUUUAAGAUCGUCAAUUUGUCCUGUUGAAUAUUCACAAUAUUGGCAUAAGUACAACAGAGGAUUGAGCAUCA
B7: 31015960_31016413_2293_3pUTR_ENSMUSG00000027660_ENSMUST00000118470|mouse|control|control (ssRNA)
RNA: GGGAGUUCUACAGUCCGACGAUCUAGAAUUCCUCCAUCCUCUGAGCAUGCUCACUCUGUAACGACUCAAGCUCUUUCUGUAGAUUCUGCUGCUCUUCAGUGAGCUCCUUCAUCGCCUUUGAACUGCUCAGCAUCUCCACCUCCCAACAGAGGAUUGAGCAUCA
B8: chr13:96295345:96295346:-_ENSG00000134874_ENST00000376829|hu_hu|motif|central (ssRNA)
RNA: GGGAGUUCUACAGUCCGACGAUCGCACCCAGAACCCUUACAAACUUGGGUCGGGGCUGCAUUCUGGGCUUUGGAGAGGCGGAAAUAUUUCUAGCAGCGACUUGUAGACCUCAGGCCUCUCAUUUCUAUGGGUCUUCUGGGGGCCAACAGAGGAUUGAGCAUCA
B9: 61707665_61713045_2756_CDS_ENSG00000171316_ENST00000423902|human|control|control (ssRNA)
RNA: GGGAGUUCUACAGUCCGACGAUCCCCAGCAGCAUCUGCAUCAUCUGCCUCCUCAUCAGAAAUCUUGAACUCCAGGUCUUCAGUGUAGCGCUUUCUCUUCACCUGUCUGCUGGACCGUCUCUUCUGAACACCUGGGUCCUCAUCCAACAGAGGAUUGAGCAUCA
B10: 142892148_142892268_3018_CDS_ENSMUSG00000031004_ENSMUST00000033310|mouse|control|control (ssRNA)
RNA: GGGAGUUCUACAGUCCGACGAUCCACUUUCUUUUCUGUAAUUCCUUGAUCCUCACUUAUUGAUGUGUUUUGCAUGUGCAUGGAUUCCUCUAGGUUUUGUAUGGUUCCUUGUCCUUGACUAAGUAGUUCCUCAGCAUAGUCUGCCAACAGAGGAUUGAGCAUCA
B11: 146273032_146273152_1029_CDS_ENSMUSG00000037110_ENSMUST00000109986|mouse|control|control (ssRNA)
RNA: GGGAGUUCUACAGUCCGACGAUCAUCAACUCCAUUUUUAGUGUUUUGUGUUGCAGUUAGAUACUUUUUUUCCAAAAAGAAAGUUACAAUCCAUUUAAUGAAAACAACACGAGCUGCCAUGUAUGGAAUUUUUGUACUGUAAAUCAACAGAGGAUUGAGCAUCA
B12: chr12:48362563:48362564:+_ENSG00000134291_ENST00000256686|hu_hu|hu_hu_hu_mus_False|1_108 (ssRNA)
RNA: GGGAGUUCUACAGUCCGACGAUCUCCGAAGGGUGAAUCGAUAGACCCUUGCGGGGGAAACUGUAAUCACUUUGUAUGGGGAAGGAAAAGAAACGCCAAAAACUUUCCAAAAAGCGGGGGUGGGGUGAGGCGGGAGGUUGGGAACAACAGAGGAUUGAGCAUCA
B13: chr7:102952668:102952669:+_ENSG00000105819_ENST00000453466|hu_mus|FALSE|FALSE (ssRNA)
RNA: GGGAGUUCUACAGUCCGACGAUCCUGGUUAAAAUCUGGUAGUCGCUCAAUAGGACCCAGAGCAGCAAUAGCUGGGCUUUUGUCAUGAAUGUACUUGGUGCACACUCGUCGAACCGUCUCCGCAUCCACAGCAUCAAUUCUUGCCAACAGAGGAUUGAGCAUCA
B14: chr13:111857651:111857652:+_ENSG00000102606_ENST00000375736|hu_mus|FALSE|FALSE (ssRNA)
RNA: GGGAGUUCUACAGUCCGACGAUCAGCACACACAGAAUCACUUCCUAGUCCAAUGUCUGCUGUCACUUUAUUUAGUGUCACCAAGGAGCUGAGGACCUUGUUAAAGUUCUGCCCCUGAUACAAAUCAUUUGCAUCAAAAGUCUCCAACAGAGGAUUGAGCAUCA

For this assay, the target named is T1, UNK ZnF1-3 (human, UniProt Q9C0B0 31-174).
T1 sequence: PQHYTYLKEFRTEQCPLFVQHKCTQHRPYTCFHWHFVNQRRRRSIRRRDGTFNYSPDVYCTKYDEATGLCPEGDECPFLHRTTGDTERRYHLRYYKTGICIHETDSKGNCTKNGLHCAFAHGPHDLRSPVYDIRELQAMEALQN
As to the kind of experiment: nsRBNS (natural sequence RNA bind-n-seq); RBNS binding buffer (assumed for nsRBNS): 25 mM Tris pH 7.5, 150 mM KCl, 3 mM MgCl2, 0.01% Triton X-100, 500 ug/ml BSA, 20 U/ml SUPERase-In, 4 C; UNK is unkempt and MSI1 is Musashi-1; names of the RNAs are library labels; protein concentration not given here; high values mean tight binding.
In the case of B1, the binding signal is 0.673 enrichment R.
Regarding B2, the binding signal is 1.35 enrichment R.
With B3 the figure was 1.94 enrichment R; with B4, 1.1 enrichment R.
The same measure for B5: 1.75 enrichment R; for B6: 0.952 enrichment R.
With B7 the figure was 0.514 enrichment R; with B8, 1.02 enrichment R; with B9, 0.772 enrichment R.
Turning to B10, the binding signal was 0.367 enrichment R.
With B11 the figure was 0.87 enrichment R; with B12, 2.26 enrichment R.
With B13 the figure was 0.942 enrichment R; with B14, 1.52 enrichment R.
